# Experimental data: the supplement of paper PMC3334620
# Whole data set: some 33,000 sequences, median “E-score (-0.5 to 0.5)” near -0.016, cut for the highest 2% near 0.32. The list shows a part of the results.
# Target: T1, Stp1 (UniProt B3LFK1)
# T1 sequence: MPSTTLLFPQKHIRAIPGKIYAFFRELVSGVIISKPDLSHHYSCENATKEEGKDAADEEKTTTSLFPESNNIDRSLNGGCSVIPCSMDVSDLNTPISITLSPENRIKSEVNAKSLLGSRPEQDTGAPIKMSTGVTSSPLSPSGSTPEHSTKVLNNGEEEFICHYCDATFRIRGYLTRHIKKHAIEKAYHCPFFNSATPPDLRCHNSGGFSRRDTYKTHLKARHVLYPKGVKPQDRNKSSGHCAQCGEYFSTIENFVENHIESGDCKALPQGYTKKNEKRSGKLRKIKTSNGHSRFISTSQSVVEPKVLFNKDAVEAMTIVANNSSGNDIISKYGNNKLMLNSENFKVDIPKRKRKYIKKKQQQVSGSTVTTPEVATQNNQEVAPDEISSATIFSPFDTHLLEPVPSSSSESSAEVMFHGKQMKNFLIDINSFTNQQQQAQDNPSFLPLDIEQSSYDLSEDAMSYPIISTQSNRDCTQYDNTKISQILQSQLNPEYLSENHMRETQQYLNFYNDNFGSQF
# Experiment: PBM E-score (8-mer binding enrichment) (E-score (-0.5 to 0.5)); higher = stronger / more preferred TF binding; most listed sequences are background and not binding sites
# Settings: protein concentration: 200 nM; construct: GST-full length
# Method in brief: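 Masliner-normalised scans of fluorescent anti-GST signal were the basis for scoring. That signal came from GST-tagged yeast transcription factors applied at about 100-200 nM to double-stranded universal all-10-mer Agilent arrays on fresh or once-stripped slides. Each ungapped eight-base word, pooled with its reverse complement, received an E-score from the Universal PBM Analysis Suite.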
row,Sequence,PBM E-score
1,AAATCCTT,-0.0347
2,CAGTAGGA,0.067
3,ATAACAGA,0.138
4,AACAAAAC,0.179
5,ACCGACTG,-0.213
6,CACACGCG,0.227
7,CCTTCAGA,-0.14
8,CCGGACGA,-0.0479
9,CATGTCCG,-0.137
10,AGCGCTAG,-0.123
11,CTACCTCA,-0.152
12,ACGCAAGG,0.187
13,AGACCGGG,-0.185
14,CTCGAATC,-0.205
15,CCCGGGCA,0.0386
16,ACACAAGA,0.0286
17,AGAACACC,-0.147
18,CTACATTA,0.033
19,CACAAACA,0.172
20,ATCTAATG,0.0142
21,CCATTAGA,-0.237
22,AGAAGTCT,-0.207
23,ATGTTAGG,0.00885
24,AATCTTCC,-0.243
25,GAGATTCC,-0.0223

row,Sequence,PBM E-score
1,AAACTTAA,0.235
2,CCCGTTCC,-0.00751
3,AGTTAGGG,-0.2
4,GAGTCCCA,-0.134
5,ATTACGAC,0.0495
6,ACGGCCCG,0.275
7,AATTGTAC,0.212
8,ACAAGAAT,0.159
9,CAGAGCAG,-0.0998
10,ACTTCACA,-0.0788
11,CCCAACGC,-0.0865
12,CTTAAGCC,0.118
13,GAGTGCGA,-0.046
14,CAACATAC,0.0911
15,GGTTTAAC,0.0879
16,GCATCCAC,-0.0284
17,CTGGGAAC,0.0375
18,ACTTTGGA,0.0914
19,GACTTAAA,-0.131
20,ACTGTTTG,-0.00198
21,AGTATACA,0.0474
22,ATGCGTTG,0.00857
23,ACTCTCTC,-0.083
24,ATATAACA,0.141
25,CTATGAAA,-0.117

row,Sequence,PBM E-score
1,ATTGATAG,-0.0347
2,ACACTTCT,-0.156
3,AGGGCGGC,0.14
4,CAGCAGTC,-0.259
5,CCATATAC,0.135
6,GCCAGAAA,0.00732
7,CTGTGGTA,0.0507
8,AACCTTAC,0.129
9,CGCTGAGA,0.0916
10,TGCGTACA,0.0609
11,TACAACAA,0.108
12,ACTGTCCG,-0.147
13,GTCTGTTA,0.0512
14,AATCTACC,-0.0419
15,GTTCATAA,0.032
16,GACACCTA,-0.084
17,CCAAGGAG,-0.142
18,GCGATCTA,0.138
19,CGTGTGAA,0.0817
20,CTGGACTA,-0.185
21,CAGGTTCA,-0.211
22,ATCGTGCA,0.0249
23,AGCCATAT,0.125
24,ATCGAGAC,-0.121
25,CCACGCCG,0.34

row,Sequence,PBM E-score
1,AATGGTTA,0.0181
2,CAGCGATA,-0.156
3,GATCCAGA,-0.0161
4,AGATAATC,-0.0139
5,TCCATAAA,0.0328
6,CGATCCTC,-0.285
7,CCCTATAA,-0.236
8,ACGTACTC,-0.0171
9,GTCTCCAC,-0.0282
10,CTCTGGTC,-0.00137
11,AAGGCAGA,-0.164
12,GACACAGA,0.0869
13,AAGGGACT,-0.266
14,CAGCCTAA,-0.107
15,AAGACTAT,0.04
16,AAGATTCA,0.0167
17,CCGCTCAG,0.165
18,CCATCGAG,0.154
19,TATTAATA,-0.106
20,CCAACTAC,-0.0511
21,CAACACGG,0.237
22,CTTCGCGC,0.0799
23,CTCCTCGA,-0.128
24,ACGGACAC,0.218
25,ACCGAGGG,-0.404

row,Sequence,PBM E-score
1,AGGGCTCG,-0.0876
2,CCTCACCA,-0.0872
3,AAGAAATG,0.131
4,AAGTGGTA,-0.14
5,ATTTTTGA,0.14
6,GATCTGAC,-0.0927
7,CGATTAAA,0.165
8,ATTTGGTA,0.144
9,CTACTCTA,-0.0312
10,AGCGCGGC,0.402
11,CGGGTAAA,0.114
12,CCCGGGTC,-0.196
13,CATCCTCG,0.0185
14,GATTAATC,-0.126
15,CTATTGAG,-0.0298
16,AGCGTTCC,0.0306
17,ACTTAATG,0.107
18,CTGGTCCC,-0.428
19,CCAACGAG,-0.251
20,AACTATTA,0.0551
21,ATATGCAA,0.163
22,ATATTATG,0.262
23,GTCGCTAA,0.104
24,TTTCGAAA,0.229
25,ATTAGACA,0.0465

row,Sequence,PBM E-score
1,ACGGAGAT,0.025
2,AAATTAAC,0.0951
3,AGCCGATG,-0.046
4,AGGTACTG,-0.0685
5,GGGACCAC,-0.149
6,ACTGGCAT,-0.0932
7,CAATTATG,0.218
8,ACGCATAT,-0.1
9,CACACCTA,-0.00229
10,CGGGGCCA,-0.16
11,ATATTGAT,0.181
12,ATCAAACA,0.0879
13,AATCCCAA,0.00489
14,TATTACGA,0.0415
15,CCTCGTTC,-0.0717
16,CAGTCGCA,-0.0873
17,GCATGTCC,-0.112
18,ACGCATCT,-0.0566
19,CTGTTCTA,0.074
20,CTCGGAAC,0.0137
21,ATCGTGTA,-0.0176
22,ACGCATAG,0.0768
23,TGTAGACA,0.0162
24,CGGCTCAG,0.379
25,CATGATAA,0.0453

row,Sequence,PBM E-score
1,CTGCCACC,-0.0141
2,ACAAGCGC,0.114
3,ACCGAATC,-0.0403
4,ATGGTCGC,-0.00616
5,CATTGGCC,-0.224
6,CCTACCCA,-0.0762
7,GGATATAA,0.135
8,TCCCTCAA,-0.00823
9,GCTAGGAC,-0.0365
10,ACGTGTCG,-0.0661
11,GATTCGGA,0.122
12,TGTTAACA,-0.012
13,ACTTTTAG,-0.00241
14,CATCTAGA,-0.00728
15,ACATAAGC,0.00404
16,GTGCACCA,-0.0112
17,AGAGACCT,-0.174
18,CCATGATA,-0.108
19,ATACTCAG,0.06
20,CAGTTGAG,-0.112
21,GCCTCGGA,-0.00755
22,GACTCTCA,-0.0854
23,ACACACAT,0.16
24,AGGTCGTC,-0.156
25,AAGTACTT,0.0668

row,Sequence,PBM E-score
1,AATCACAT,-0.108
2,GGCCGGGA,-0.23
3,CAGATAGC,-0.217
4,TACGTCTA,-0.0514
5,GGTTCTTA,-0.145
6,AGATCACT,0.0299
7,CGACACAA,-0.0856
8,GCTGCGAA,-0.0255
9,ACACAGCC,0.0119
10,CTGAGCGC,0.0168
11,AAGGAGTC,-0.288
12,AACCCGTA,0.0688
13,CTAGCATA,-0.0957
14,GATAACTA,-0.0736
15,ATGGTTCA,0.1
16,CGGAAGGA,-0.0947
17,ACTGATAC,-0.055
18,AAATCTGC,0.0819
19,GCTCGCCC,-0.205
20,ATTGACAC,-0.0414
21,GTTCACAA,0.159
22,CCTTAGAA,0.025
23,AAAATGCC,0.352
24,CTTGATCC,0.0811
25,AAATGGTA,0.166

row,Sequence,PBM E-score
1,GCCGGGTA,-0.155
2,AGACGGCT,0.343
3,GTATAACA,0.123
4,ACACTTGC,0.0142
5,GATGCCGA,0.29
6,GGCGTGAC,0.0543
7,GCTGGAGA,-0.233
8,AACATCCT,-0.0558
9,GCTAATGA,-0.0283
10,AGGCCTAT,-0.178
11,CGAGCTAA,-0.191
12,GATGCAAA,-0.115
13,GCTGAGAC,0.0379
14,AGCGTAGG,-0.0457
15,GAAGAGGC,0.257
16,ATCCAACC,-0.136
17,GAGGTCAA,-0.207
18,GCGGTCCA,-0.242
19,AAACCGGT,-0.0421
